We go through 57 molecules from PubChem BioAssay AID463173 (ICCB-Longwood Screening Facility, Harvard Medical School, 2010).

Molecules are shown by their SMILES. The whole screen tested about 52,000 compounds, of which about 4,300 (8.3%) were called active. No stated cut-off is given here; in the data, active means survival mostly below about 52% (no sharp cut-off); inactive means mostly above about 56%. The list shows a part of the results.

For the experiment, the system named is DeltatarO mutant. In words: growth inhibition of S. aureus wild type versus tarO mutant, primary screen, teichoic acid synthesis inhibitors, RN4220, OD600 (AID 463173). As to conditions: OD600, 18 h, stronger effect = lower value, screened at 18.75 µg/mL (by protocol).
As to `COc1cc(-c2noc(-c3ccc(NCCc4ccccc4)c([N+](=O)[O-])c3)n2)cc(OC)c1OC`, the survival was inactive: 66%.
Take `NC1=NN(c2cccc(C(=O)O)c2)C(=O)C1`: the survival is inactive: 78%.
Take `COc1cc(NC(=O)CCNS(=O)(=O)c2ccc3c(c2)CCN3C(=O)C2CC2)cc(OC)c1`: the survival is inactive: 87%.
With `COCC(=O)N1CCc2cc(OC)c(OC)cc2C1COc1ccc2c(C)cc(=O)oc2c1` (configuration not stated), the survival was inactive: 76%.
`Cc1ccc(C)c(N2CCN(C(=O)c3ccc4c(Cl)c5c(nc4c3)CCCC5)CC2)c1`: the survival is inactive: 98%.
As to `COc1cccc(CNC(=O)c2c(O)nc3ccccn3c2=O)c1`, the survival was active: 43%.
Consider `COc1ccc(Cc2nnc(SCC(N)=O)o2)cc1`, for which the survival is inactive: 76%.
With `CCOc1ccc(N2CC(c3nc4ccccc4n3CC(C)C)CC2=O)cc1` (configuration not stated), the survival is inactive: 56%.
With `CCc1ccc(CN(Cc2ccco2)C(=O)c2cc(-c3ccc(Cl)cc3)on2)cc1`, the survival is inactive: 75%.
Turning to `Cc1cc2c(cc1S(=O)(=O)Nc1cccc(C(F)(F)F)c1)OCCN2C`, the survival is inactive: 86%.
`CCOc1ccc(-c2nonc2NC(=O)c2ccccc2C)cc1`: the survival was inactive: 107%.
On to `COc1ccc2c(Sc3ccccc3)c(C(=O)NCCN(C)C)[nH]c2c1`, for which the survival was inactive: 98%.
As for `CCN(CC)C(=O)c1sc2c(c1C)c(=O)n(-c1ccc(C)c(C)c1)c(=O)n2CC(=O)Nc1ccc(F)cc1`, the survival is inactive: 92%.
With `O=C(Cc1ccc(Cl)cc1)Nc1ccc2oc(-c3ccccc3)nc2c1`, the survival was inactive: 67%.
`CC(C)Oc1ccc(CNC(=O)Cc2ccc(NC(=O)N3CCSc4ncccc43)cc2)cc1`: the survival is inactive: 102%.
The value for `Cc1ccc(Cl)cc1NC(=O)NC1COc2ccccc2C1` (configuration not stated) was inactive: 64%; that for `CC(C)(C)C1CCc2c(sc(NC(=O)c3ccccc3F)c2C(=O)N2CCCCC2)C1` (configuration not stated) was active: -5%; that for `CC(C)Cn1c(=O)c2sccc2n2c(CCCC(=O)Nc3ccc(Cl)cc3)nnc12` was inactive: 81%.
As for `CS(=O)(=O)c1ncc(N(Cc2ccccc2)Cc2ccco2)c(C(=O)Nc2cccc(C(F)(F)F)c2)n1`, the survival was inactive: 52%.
Consider `Cc1cc(C)c(NC(=O)CSc2nc(=O)n(Cc3ccco3)c3c2CCC3)c(C)c1`, for which the survival is inactive: 71%.
The value for `O=C(NCCc1ccc(Cl)cc1)c1ccc2nc(Cc3ccccc3)oc2c1` was inactive: 94%; that for `Fc1ccc(-c2csc(-c3nc(-c4ccc(Br)s4)cs3)n2)cc1` was inactive: 80%.
As for `Cc1cc(SCCN2CCOCC2)nc2ccccc12`, the survival was inactive: 68%.
`Cc1cc2ncn(CCC(=O)Nc3ccccc3F)c2cc1C`: the survival is inactive: 103%.
Turning to `CC1CCCCN1C(=O)CSc1nnc(-c2cccc(Cl)c2)o1` (configuration not stated), the survival is inactive: 96%.
Under `CC(=O)N1CCCc2cc(S(=O)(=O)N(C)CC(=O)Nc3ccc(F)c(Cl)c3)ccc21` stands inactive: 99%; under `CCOc1ccc(NC(=O)CCCN2C(=O)C(c3ccccc3)Oc3cccnc32)cc1` (configuration not stated), inactive: 83%; under `C1CCC2(CC1)C1=C(CCCC1)Nc1nnnn12`, inactive: 91%.
In the case of `CCC(Cn1nnc2ccccc2c1=O)NC(=O)Nc1cc(Cl)ccc1OC` (configuration not stated), the survival is inactive: 71%.
As to `Cc1ccc(-n2ncc(C(=O)NCc3cccs3)c2C2CCN(C(=O)OC(C)(C)C)CC2)cc1C`, the survival was inactive: 91%.
Turning to `CC(C)CN(CCNC(=O)c1cc(=O)[nH]c2ccc(S(=O)(=O)N3CCCCCC3)cc12)CC(C)C`, the survival was inactive: 86%.
The value for `Cn1c(=O)oc2cc(S(=O)(=O)NCCC(=O)Nc3ccc(F)c(Cl)c3)ccc21` was inactive: 83%; that for `Cc1ccc(C)c(OCCOCCn2c(-c3ccc(Br)cc3)nc3ccccc3c2=O)c1C` was inactive: 61%; that for `Cc1cccc(Cn2c(CNS(=O)(=O)c3ccc(Cl)s3)nc3cccnc32)c1` was inactive: 103%.
For `Cc1ccc2[nH]c(CSc3nnc(NC(=O)COc4ccccc4F)s3)cc(=O)c2c1`, the survival was inactive: 67%.
As for `CCOc1ccc(-c2cc3c(=O)n(CC(=O)Nc4c(C)cccc4C)ccn3n2)cc1`, the survival was inactive: 79%.
`OC(COc1ccc(Cl)cc1Cl)CN1CCCCC1` (configuration not stated): the survival is inactive: 70%.
On to `CCOc1ccc(CCNC(=O)C2=C(C)C(=O)OC23CCC(C)CC3)cc1OCC` (configuration not stated), for which the survival is inactive: 78%.
Under `CCCCCn1c(=O)[nH]c2cc(C(=O)NCc3ccc(C)cc3)ccc2c1=O` stands inactive: 74%; under `O=C(CN(C(=O)c1cc2c(s1)CCC2)C1CCCC1)NCc1cccs1`, inactive: 88%; under `COc1cccc(NC(=O)CSc2nc(-c3ccccc3)nc3c2Cc2cc(Cl)ccc2O3)c1`, inactive: 100%.
Consider `Cc1ccc(C(=O)c2oc3ccccc3c2NC(=O)c2nc(S(C)(=O)=O)ncc2Cl)cc1F`, for which the survival is inactive: 65%.
Take `Cc1ccc(NC(=O)c2ccc3nc(Cc4ccccc4)oc3c2)cc1F`: the survival was active: 25%.
The value for `CCN(CC)c1ccc2cc(-c3nnc(-c4cccc(Cl)c4)o3)c(=O)oc2c1` was inactive: 69%.
As for `CCCCN(C)CCNC(=O)Cn1ncc2c3ccccc3n(CCC)c2c1=O`, the survival is inactive: 109%.
In the case of `COc1ccc(C2(O)CCN(CC(=O)NC(C)C)CC2)cc1`, the survival was inactive: 81%.
As for `Cc1csc2nc(-c3cccc(NC(=O)c4cccc(F)c4)c3)cn12`, the survival is inactive: 124%.
Under `Cc1ccc(NC(=O)c2ncn(-c3ccccc3)n2)c(Cl)c1` stands inactive: 81%; under `Cc1cccc(-c2noc(CN(C(=O)c3ccc(C)c(C)c3)C(C)C)n2)c1`, active: -3%.
On to `COc1ccc(C)cc1N(C)C(=O)c1sc2nc3n(c(=O)c2c1C)CCCCC3`, for which the survival is inactive: 58%.
Consider `CCOC(=O)Cn1nnnc1CN(CCc1ccc(OC)c(OC)c1)Cc1cc2c(C)ccc(C)c2[nH]c1=O`, for which the survival was inactive: 85%.
The value for `CN(C(=O)c1cc2sccc2n1C)C1CCCCC1` was inactive: 100%; that for `Cc1nc2cc(-c3cccc(F)c3)nn2c(C)c1CCC(=O)N1CCN(c2ccc(F)cc2)CC1` was inactive: 56%; that for `CCOC(=O)c1cccc(NC(=O)CC(c2ccc(F)cc2)N2Cc3ccccc3C2=O)c1` (configuration not stated) was inactive: 92%.
In the case of `O=S(=O)(c1ccccc1)c1nc(-c2ccc(F)cc2)oc1N1CCOCC1`, the survival is inactive: 90%.
`CCOc1cc(C#N)c(NC(=O)c2ccc(OC)c(S(=O)(=O)N3CCCC3)c2)cc1OCC`: the survival is inactive: 52%.
The value for `CCCOc1ccc(OC(=O)c2sc3ncn(Cc4cccc(F)c4)c(=O)c3c2C)cc1` was inactive: 84%.
